The values that follow come from ChEMBL document CHEMBL1201862, “PubChem BioAssay data set” (2004).

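96-well plates; 48 h exposure; 5 concentrations. Endpoints by linear interpolation between flanking doses. Not reached: highest tested concentration assigned. GI50: concentration for 50% inhibition of growth.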 Calls of active or inactive are those of the source. Cut-off read from the data, not from the text of the source: active = GI50 up to about 1.1 µM and inactive = higher. Bounds are passed on as bounds.

The assay has as its system NCI-H322M. Description: inhibition of tumour cell growth, NCI panel, 48 h.
On to `Nc1nc(O)c2c(ncn2CC(O)CO)n1` (stereo not drawn), for which the GI50 was inactive: > 100 µM.

Consider `Cc1cc(O)nc2cc3oc4ccccc4c3cc12`, for which the GI50 was inactive: 47.4 µM.

Regarding `Clc1c2ncccc2cc2nn[nH]c12`, the GI50 is inactive: > 100 µM.

Consider `O=[N+]([O-])c1ccc2c(c1)nc(Cc1ccc(Cl)cc1)n2C[C@@H]1CCCN2CCCCC12` (stereo partly drawn), for which the GI50 is inactive: 9.86 µM.

Consider `CCOC(=O)c1c(N)n(-c2ccccc2)c(=O)n(-c2ccccc2)c1=O`, for which the GI50 is inactive: > 100 µM.

As to `C/N=c1/oc2ccccc2cc1C(N)=O`, the GI50 was inactive: > 100 µM.

In the case of `CC(=O)OCC1OC(n2c3c(c(-c4ccc(C)cc4)c(C#N)c2=S)C(=O)CC(C)(C)C3)C(OC(C)=O)C(OC(C)=O)C1OC(C)=O` (stereo not drawn), the GI50 is inactive: > 100 µM.

As to `COc1ccc(-n2c3c(c4c(CN(C)C)c(O)ccc42)C(=O)c2ccccc2C3=O)cc1`, the GI50 was inactive: 18.4 µM.

For `Cn1c(=O)n2n(c1=O)[C@@H](c1ccccc1)[C@H]2c1ccccc1`, the GI50 is inactive: > 100 µM.

Consider `CC1(C)[C@H]2Cc3cc4nc5ccccn5c4cc3[C@@H]1C2`, for which the GI50 was inactive: 17 µM.

For `COc1ccc(Nc2cnc3cc(N)ccc3n2)cc1OC`, the GI50 was inactive: 72.3 µM.

In the case of `CC1=C(C(=O)CC(=O)C(=O)Nc2ccccc2C)Sc2ccccc2N1`, the GI50 is inactive: > 100 µM.

With `CCOC(=O)/C=C(/C(=O)OCC)n1ccc(=O)n(Cc2cnnn2COCCOC(C)=O)c1=O`, the GI50 was inactive: > 100 µM.

On to `CC1(C)O[C@@H](CP(c2cccc3ccccc23)c2cccc3ccccc23)[C@H](CP(c2cccc3ccccc23)c2cccc3ccccc23)O1`, for which the GI50 was inactive: > 100 µM.

On to `CCOC(=O)Nc1sc2c(c1C#N)CC(C)CC2` (stereo not drawn), for which the GI50 is inactive: 7.41 µM.

On to `COc1ccc2nc3ccccc3c(NCCCCN(C)CCCl)c2c1`, for which the GI50 was active: 0.115 µM.

`C/C(=N\Nc1ccc([N+](=O)[O-])cc1[N+](=O)[O-])c1sc(-n2nc(-c3ccccc3)cc2-c2ccccc2)nc1C`: the GI50 is inactive: 18.1 µM.

Regarding `[O-][N+]1=NC(c2ccccc2)=C1c1ccccc1`, the GI50 was inactive: > 50 µM.

As for `C/C(=N\N(C)C)c1sc(-n2nc(-c3ccccc3)cc2-c2ccccc2)nc1C`, the GI50 was inactive: > 100 µM.

As for `CCOC1=NC(=O)CC(c2ccccc2)S1` (stereo not drawn), the GI50 is inactive: > 100 µM.

Take `O=C(NO)C12C3C4C1C1C2C3C41C(=O)NO` (stereo not drawn): the GI50 is inactive: > 100 µM.

For `CCCC(=O)Nc1cn(COC)c(C(=O)N2C[C@H]3C[C@@]34C2=CC(=O)c2[nH]cc(C)c24)n1`, the GI50 was inactive: 8.04 µM.

On to `CN1CCN(C2=C(Cl)C(=O)c3c(O)ccc(O)c3C2=O)CC1`, for which the GI50 is inactive: 1.73 µM.

`O=c1[nH]c2ccccc2c(=O)n1/N=C/c1ccc(O)cc1`: the GI50 was inactive: > 100 µM.

With `O=C1OC(c2ccccc2)=N/C1=C/N1CCCC1C(=O)O` (stereo not drawn), the GI50 was inactive: > 100 µM.

As to `NC(=O)N=C(N(Cc1ccccc1)Cc1ccccc1)N(Cc1ccccc1)Cc1ccccc1`, the GI50 is inactive: 29.2 µM.

On to `COc1ccc(NC(=O)C(=O)C(CC2C(=O)NC(=S)NC2=O)C(=O)c2ccc3ccccc3c2)c([N+](=O)[O-])c1` (stereo not drawn), for which the GI50 was inactive: > 100 µM.

As for `COc1ccc(C2=NN(C(C)=O)c3nc4ccccc4nc3O2)cc1`, the GI50 is inactive: 61.4 µM.

On to `O=C1NC(=O)C2(CCc3ccc(N(CCCl)CCCl)cc32)N1` (stereo not drawn), for which the GI50 is inactive: 48.8 µM.

For `CC(=O)Nc1ccc(S(=O)(=O)[N-]C2C(=O)c3ccccc3C(=O)C2[n+]2ccccc2)cc1` (stereo not drawn), the GI50 is inactive: > 100 µM.

Turning to `CC1=[N+]([O-])C2(CCCC2)N(O)C1(C)C`, the GI50 was inactive: > 100 µM.

As to `C1CCC(CC2CCC(NC3=NCCO3)CC2)CC1` (stereo not drawn), the GI50 is inactive: 27.8 µM.

On to `Nc1nc(O)nc2c1ncn2C1OC(CO)C(O)C1O` (stereo not drawn), for which the GI50 is inactive: 76.4 µM.
